Results: PubChem BioAssay AID1461 (National Center for Advancing Translational Sciences (NCATS), 2008)
Hit rate of the full screen: of about 220,000 compounds, about 2,300 (1%) were called active. This list was built around the results that the source calls inconclusive (neither active nor inactive); the mix of calls is not that of the screen. The call rests on the fitted dose curve; in most records, active means well fitted inhibition curve with a large enough effect; inconclusive means small, poorly fitted or top-dose-only effect, or effect the other way; inactive means no such curve, though single readings can be large or run the other way. No potency is given beside an inconclusive call; the fits are too rough.

Each molecule was assayed against Neuropeptide S receptor (Homo sapiens) (UniProt Q6W5P4) (assay: qHTS Assay for Antagonists of the Neuropeptide S Receptor: cAMP Signal Transduction). Conditions: CHO-NPSR cells, cAMP TR-FRET, antagonist mode; series mostly up to 38.3 µM.
Sequence of UniProt Q6W5P4 (Q6W5P4 whole entry, looked up): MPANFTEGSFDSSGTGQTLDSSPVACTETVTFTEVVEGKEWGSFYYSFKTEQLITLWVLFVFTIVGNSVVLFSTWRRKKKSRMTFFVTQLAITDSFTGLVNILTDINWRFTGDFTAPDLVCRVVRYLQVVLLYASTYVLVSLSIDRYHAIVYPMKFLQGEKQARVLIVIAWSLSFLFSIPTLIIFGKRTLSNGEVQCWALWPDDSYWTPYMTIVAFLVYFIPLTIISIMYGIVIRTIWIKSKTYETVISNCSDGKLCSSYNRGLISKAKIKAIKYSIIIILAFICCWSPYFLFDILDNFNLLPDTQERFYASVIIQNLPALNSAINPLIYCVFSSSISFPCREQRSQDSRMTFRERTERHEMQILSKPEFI
Further: nearly all actives have a fitted effect of over 50% in size.
Potency means the concentration at half of the fitted maximal effect; tags describe the fitted curve by direction and shape.

Compound | Potency
NS(=O)(=O)c1ccc(NC(=O)Nc2ccccc2)cc1 | inactive
Nc1cc(-c2ccc(Br)cc2)[nH]n1 | inactive
COc1ccc(CCN(Cc2cc3cccc(C)c3[nH]c2=O)C(=O)N2CCCC2)cc1OC | inconclusive [inhibitor, full curve]
Cc1ccccc1N1C(=O)c2sc3nc4c(c(=O)n3c2C1=O)CCC4 | inconclusive [inhibitor, single point]
CCOC(=O)NC(=O)/C(C#N)=N\Nc1ccc(Cl)cc1 | inactive
COC(=O)c1ccc(Oc2cc(C)nc(SC)n2)cc1 | inconclusive [activator, single point]
CCCn1c(NC(=O)c2cccc(S(=O)(=O)N3CCCC3)c2)nc2ccccc21 | inconclusive [inhibitor, partial curve]
CCN(C(=S)NC(=O)C1CCCC1)C1CCCCC1 | inactive
Cc1ccc(-n2ncc3c(NCc4ccccn4)ncnc32)c(C)c1 | inactive
Cc1cc(OCCSc2nnc(-c3cccs3)n2C)ccc1Cl | inconclusive [inhibitor, single point]
NC(=O)COC(=O)c1cc(-c2ccco2)nc2ccccc12 | inactive
CC(C)c1cc(C(F)(F)F)n2nc(C(=O)Nc3ccc(-n4cnnn4)cc3)cc2n1 | inactive
N#CC(C#N)=c1ccc2c(c1)N1C3=C(CCCC3)CC3CCCCC31N=2 (stereo not drawn) | active: 12.6 µM
O=CNC(n1cnc2c(N3CCOCC3)ncnc21)C(Cl)(Cl)Cl (stereo not drawn) | inactive
CCCC/C(=N\NC(=O)c1ccc(Br)o1)c1ccccc1 | inactive
O=C(c1cc2ccccc2o1)N1CCC(N2CCC(C(=O)N3CCCC3)CC2)CC1 | inactive
Nc1ccc(C#Cc2ccccc2)cc1 | inactive
CCCc1cc(=O)[nH]c(-n2[nH]c3c(c2=O)CCCC3)n1 | inactive
C#CCn1c(S(=O)(=O)Cc2ccc(OC)cc2)nc(-c2ccccc2)c1-c1ccccc1 | inconclusive [inhibitor, single point]
Cc1ccc(Nc2nc(CSc3nnc(-c4cccnc4)n3-c3ccccc3C)cs2)cc1 | inactive
COC(=O)C1=C(C)N(CCc2ccc(OC)c(OC)c2)C(=O)C1 | inactive
CCCC(=O)N1CCN(c2ccc(NC(=O)c3cc4ccccc4o3)cc2Cl)CC1 | inconclusive [inhibitor, single point]
COC(=O)C(C)N(C(=O)c1ccc(C(=O)c2ccccc2)cc1)c1c(C)cccc1C (stereo not drawn) | inconclusive [inhibitor, partial curve]
Cc1ccc(-c2ccc(/C=C3\C(=O)ON=C3c3ccccc3)o2)c([N+](=O)[O-])c1 | active: 7.94 µM
CCOc1ccc(Br)cc1C(=O)Nc1ccc(C(=O)NCC(C)C)cc1 | inconclusive [inhibitor, single point]

Compound | Potency
CCOC(=O)Nc1nc(-c2ccccc2)c(C(=O)c2ccccc2)s1 | inconclusive [activator, full curve]
COc1cc(OC)c2c(-c3ccccc3)cc(=O)oc2c1C(CCN1CCCCC1)c1ccc2c(c1)OCO2 (stereo not drawn) | inconclusive [inhibitor, single point]
COc1ccc(CCNC(=O)C2CCCN(c3ncccn3)C2)cc1 (stereo not drawn) | inactive
CCc1ccc(-c2nn(-c3ccccc3)cc2CSC(=N)N)cc1 | inconclusive [inhibitor, single point]
COc1ccccc1N1CCN(C(=O)c2cc(-c3ccc(Cl)cc3)on2)CC1 | inconclusive [inhibitor, partial curve, poor fit]
CC(=C/c1ccccc1)/C=N/NC(=O)c1cccs1 | inconclusive [inhibitor, single point]
O=S(=O)(NCC(c1ccco1)N1CCN(c2ccccc2F)CC1)c1ccc2c(c1)OCCO2 (stereo not drawn) | inconclusive [inhibitor, partial curve, poor fit]
Cc1c(C(=O)O)oc2ccc(S(=O)(=O)N3CCC(C)CC3)cc12 | inactive
CC(C)C[C@H](CO)Nc1nc(N(C)c2cccc(Cl)c2)c2ncn(C(C)C)c2n1 | inconclusive [inhibitor, single point]
Cc1cc(C)n(-c2ccc(C(=O)N3CCC(CO)(Cc4ccccc4)CC3)cc2)n1 | inactive
Cc1occc1-c1nnc(SCC(=O)c2c(N)n(Cc3ccccc3)c(=O)n(C)c2=O)n1C | inconclusive [inhibitor, full curve, poor fit]
CC(OC(=O)c1oc2ccccc2c1COc1ccccc1)C(N)=O (stereo not drawn) | inactive
O=C(Nc1ccc(N2CCOCC2)c(Cl)c1)c1ccc(Br)o1 | inactive
COc1cc(C=O)ccc1OCCCOc1ccccc1C(=O)O | inconclusive [inhibitor, single point]
COCCCNC(=O)CN(c1ccc(Cl)c(Cl)c1)S(C)(=O)=O | inactive
Cc1nc(Cl)c(C#N)cc1-c1ccccc1 | inconclusive [inhibitor, single point]
COc1cc(/C=C2\SC(=S)N(CC(=O)Nc3ccccn3)C2=O)cc(OC)c1OC | inconclusive [inhibitor, partial curve]
CCn1c(=NC(=O)CN2C(=O)CCC2=O)sc2c(C)cc(C)cc21 | inconclusive [activator, single point]
CCOC(=O)c1c(C)oc2c1c(C(c1ccccc1)N1CCOCC1)c(O)c1ccccc12 (stereo not drawn) | inconclusive [inhibitor, single point]
Cc1ccc(-c2csc(N(CCCN(C)C)C(=O)c3ccco3)n2)cc1 | inconclusive [activator, single point]
Cc1ccc(C(=O)N(c2ccccc2)C2CC(C)N(C(=O)c3ccco3)c3ccccc32)cc1 (stereo not drawn) | inconclusive [inhibitor, single point]
CCCCOC(=O)CNc1n[nH]c(=S)[nH]c1=O | active: 10 µM
CCn1cc([N+](=O)[O-])c(C(=O)N2N=C(c3ccc4ccccc4c3)CC2c2cc(Br)ccc2O)n1 (stereo not drawn) | inconclusive [inhibitor, single point]
COc1cccc(C(=O)Nc2ccc(-c3nnc(-c4ccco4)o3)cc2)c1 | inconclusive [inhibitor, single point]
COc1cc(CNCCc2ccccc2)cc(Cl)c1OCc1ccccc1 | inconclusive [inhibitor, single point]

Compound | Potency
CC(=O)Nc1cccc(NC(=O)CSc2nnnn2C(C)C)c1 | inactive
Cc1cccc(NC(NC(=O)Cc2ccccc2)C(Cl)(Cl)Cl)c1 (stereo not drawn) | inconclusive [inhibitor, single point]
CCOC(=O)c1c(-c2cccs2)csc1NC(=O)CC(C)C | inconclusive [inhibitor, single point]
NC(=S)N=Nc1c(O)[nH]c2ccc(F)cc12 | inactive
CC(=O)c1c(C)[nH]c(C(=O)CSc2nc3ccccc3c(=O)n2CCCN2CCOCC2)c1C | inconclusive [inhibitor, single point]
Cc1ccc(NC(=O)/C(C#N)=C/c2cn(CC(=O)NCc3ccco3)c3ccccc23)cc1C | inconclusive [activator, partial curve]
COCc1nc(-c2ccc(-c3ccccc3)nc2OC)no1 | inconclusive [inhibitor, single point]
Cc1ccc(-n2c(SCc3cn4ccsc4n3)nc3ccccc3c2=O)cc1 | inconclusive [inhibitor, single point]
O=C(O)CN1C(=O)C2C3CC(C2C1=O)C1C(c2ccc(Cl)cc2)c2sc(=O)[nH]c2SC31 (stereo not drawn) | inactive
COc1ccc2cnn(-c3ccccc3)c(=O)c2c1OC | inactive
COc1ccc(/C=N/N=C2/SCC(=O)N2Cc2ccccc2)cc1 | inconclusive [inhibitor, single point]
Cc1cc(/C=N/NC(=O)CC2(C)OCCO2)c(C)n1-c1ccc(Cl)c(Cl)c1 | inconclusive [activator, partial curve]
Cc1ccccc1Nc1scc(-c2ccc(Br)cc2)[n+]1-c1ccccc1C | active: 10 µM
COc1ccc2c(CC(=O)Nc3ccc(OC)c(NS(=O)(=O)c4ccc(F)cc4)c3)coc2c1 | inconclusive [inhibitor, partial curve, poor fit]
Cc1cn(C2OC(COC(=O)c3ccccc3)C(O)C2O)c(=O)[nH]c1=O (stereo not drawn) | inactive
Cc1cc2c(Nc3ccccc3)ncnc2s1 | inactive
CC(C)(C)[C@H]1C=C(C(=O)NCc2ccccc2)O[C@@H](OCc2ccc(CO)cc2)C1 | inconclusive [activator, single point]
CCCNC(=O)CS(=O)Cc1nc(-c2ccccc2C)oc1C (stereo not drawn) | inactive
Cc1ccc(-c2cc3nc(C)cc(NCc4ccco4)n3n2)cc1 | inconclusive [inhibitor, partial curve]
Brc1cccc(/C=N\n2cnnc2)c1 | inconclusive [inhibitor, partial curve, poor fit]
CC(=O)N1CCN(c2ccccc2NC(=O)c2ccc(-c3cccc([N+](=O)[O-])c3)o2)CC1 | inactive
O=C(Nc1ccccc1)Nc1cc(OCC(F)(F)F)cc(OCC(F)(F)F)c1 | inconclusive [inhibitor, single point]
COc1ccccc1/C=C/C=N/n1c(COc2ccccc2)n[nH]c1=S | inconclusive [inhibitor, partial curve, poor fit]
